# The other results are listed elsewhere or left out. Repeats are few or missing, and single values can be far off.
# System: NCI-H460
# Experiment: cell-surface PD-L1 MFI ratio relative to cisplatin alone (isotype-subtracted); higher = higher PD-L1 surface expression
# Conditions: inducer: cisplatin 4 uM; 10 µM; 24 h
# Experimental: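 A549 and H460 NSCLC cells were treated with each library drug at 10 uM, then with radiation (8 Gy) or cisplatin (4 uM), and incubated for 24 h. Cell-surface PD-L1 was measured by flow cytometry as an MFI ratio: (MFI drug+inducer - MFI isotype)/(MFI inducer alone - MFI isotype). Hits were defined as ratio < 0.75.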
row,Compound,cell-surface PD-L1 MFI ratio
1,COc1cc([C@@H]2c3cc4c(cc3[C@H](O)[C@H]3COC(=O)[C@@H]23)OCO4)cc(OC)c1OC [Picropodophyllin (PPP)],inactive: 1.51
2,COC(=O)[C@@H](N)CCCNC(=N)N[N+](=O)[O-],inactive: 1.41
3,CN1CCN(c2ccc([N+](=O)[O-])c3no[n+]([O-])c23)CC1,inactive: 0.968
